# In the antibiotic and cytotoxicity screens of Wong et al. (2023):
# This is one part of the list.
# System: HepG2
# Experiment: cytotoxicity call (relative viability < 0.9)
# Details: 10 µM
row,Structure (SMILES),cytotoxicity call
1,NCC[C@H]1CC[C@H](NC(=O)C2CCCCC2)[C@@H](CO)O1,inactive
2,CC(C)NC(=O)Nc1ccc2c(c1)C(=O)N([C@@H](C)CO)C[C@@H](C)[C@@H](CN(C)C(=O)Nc1cccc3ccccc13)OCCCC[C@@H](C)O2,inactive
3,C[C@H]1CCCCO[C@H](CN(C)Cc2ccc(Cl)c(Cl)c2)[C@@H](C)CN([C@@H](C)CO)C(=O)c2cc(NC(=O)NC3CCCCC3)ccc2O1,inactive
4,COc1ccc([Si](C)(C)[C@@H]2[C@@H](CC(=O)N(CCO)Cc3ccccc3)O[C@]3(C(=O)N(Cc4cccc(N5CCCCC5=O)c4)c4ccccc43)[C@H]2C)cc1,inactive
5,C[C@@H]1CCCCO[C@@H](CN(C)C(=O)Nc2ccc(C(F)(F)F)cc2)[C@H](C)CN([C@@H](C)CO)C(=O)c2cc(NS(C)(=O)=O)ccc2O1,inactive
6,C[C@H](CO)N1C[C@H](C)[C@@H](CN(C)Cc2ccc(C(F)(F)F)cc2)OCCCC[C@H](C)Oc2ccc(NS(=O)(=O)c3cccs3)cc2C1=O,inactive
7,CO[C@@H]1CN(C)C(=O)c2ccc(NC(=O)c3cc(C)on3)cc2OC[C@@H](C)N(S(=O)(=O)c2ccccc2)C[C@H]1C,inactive
8,C[C@@H]1CCCCO[C@@H](CN(C)S(=O)(=O)c2ccccc2)[C@@H](C)CN([C@H](C)CO)C(=O)c2cc(NS(=O)(=O)c3ccc(Cl)cc3)ccc2O1,inactive
9,C[C@H](CO)N1C[C@H](C)[C@H](CN(C)Cc2ccc(C(F)(F)F)cc2)Oc2ccc(NC(=O)Cc3cn(C)c4ccccc34)cc2C1=O,inactive
10,NC(=S)N[C@H]1C[C@@H]2C=C[C@H]1C2,inactive
11,C[C@H](CO)N1C[C@H](C)[C@@H](CN(C)C(=O)CN(C)C)Oc2cc(C#CC(C)(C)O)ccc2S1(=O)=O,inactive
12,CN(C)CCOC(C)(c1ccccc1)c1ccccn1.O=C(O)CCC(=O)O (stereo not given),inactive
13,CCNC(=O)[C@@H]1CCCN1C(=O)[C@H](CCCN=C(N)N)NC(=O)[C@H](CC(C)C)NC(=O)[C@@H](COC(C)(C)C)NC(=O)[C@H](Cc1ccc(O)cc1)NC(=O)[C@H](CO)NC(=O)[C@H](Cc1c[nH]c2ccccc12)NC(=O)[C@H](Cc1c[nH]cn1)NC(=O)[C@@H]1CCC(=O)N1,inactive
14,C[C@@H]1CN([C@H](C)CO)C(=O)Cc2cc(NC(=O)Cn3cnnn3)ccc2O[C@@H]1CN(C)CC1CCCCC1,inactive
15,C[C@@H]1CN([C@@H](C)CO)C(=O)c2cc(NC(=O)Nc3ccccc3)ccc2O[C@@H]1CN(C)Cc1ccc(-c2ccccc2)cc1,active
16,Clc1ccc2ncccc2c1,inactive
17,C[C@H]1CN([C@@H](C)CO)C(=O)CCCn2nncc2CO[C@H]1CN(C)S(=O)(=O)c1ccc(-c2ccccc2)cc1,inactive
18,C[C@H](NC(=O)c1c(N)nn2cccnc12)c1cc2cccc(C#Cc3cnn(C)c3)c2c(=O)n1-c1ccccc1,active
19,C[C@@H]1CCCCO[C@H](CN(C)C(=O)Nc2ccc(C(F)(F)F)cc2)[C@H](C)CN([C@@H](C)CO)C(=O)c2cc(NS(C)(=O)=O)ccc2O1,inactive
20,C[C@H]1CN([C@@H](C)CO)C(=O)Cc2cc(NS(=O)(=O)c3ccccc3)ccc2O[C@@H]1CN(C)S(C)(=O)=O,inactive

row,Structure (SMILES),cytotoxicity call
1,COc1ccc(NC(=O)Nc2ccc3c(c2)CC(=O)N([C@H](C)CO)C[C@@H](C)[C@H](CN(C)S(C)(=O)=O)O3)cc1,inactive
2,C[C@H](CO)N1C[C@H](C)[C@H](CN(C)C(=O)Nc2ccc(C(F)(F)F)cc2)Oc2c(NC(=O)NC3CCCCC3)cccc2C1=O,active
3,C[C@H](CO)N1C[C@H](C)[C@H](CN(C)C(=O)NC2CCCCC2)OCCCC[C@H](C)Oc2ccc(NC(=O)Nc3ccc(C(F)(F)F)cc3)cc2C1=O,active
4,Cc1ccc(S(=O)(=O)N(C)C[C@@H]2OCCCC[C@@H](C)Oc3ccc(NC(=O)Nc4ccc5c(c4)OCO5)cc3C(=O)N([C@@H](C)CO)C[C@H]2C)cc1,inactive
5,CCS(=O)(=O)N1CC[C@]2(CC1)CN([C@@H](CO)c1[nH]c3cc(ccc3c12)OC)S(=O)(=O)c1cccc(c1)OC,inactive
6,C[C@H](CO)N1C[C@H](C)[C@@H](CN(C)S(=O)(=O)c2cccs2)Oc2ccc(NS(=O)(=O)c3ccccc3)cc2C1=O,inactive
7,CN1C(=O)[C@H]2[C@H](C1=O)[C@H]1C=C(c3ccc(CO)cc3)[C@@H]2[C@H](c2cccs2)N1Cc1cccc(OC(F)(F)F)c1,inactive
8,O=C(C[C@H]1CC[C@@H]2[C@H](COC[C@@H](O)CN2Cc2cccc(C(F)(F)F)c2)O1)NCCc1ccncc1,active
9,C[C@H](CO)N1C[C@H](C)[C@H](CN(C)S(=O)(=O)c2ccc(F)cc2)Oc2c(NS(C)(=O)=O)cccc2C1=O,inactive
10,CCn1cc(-c2ccc3ccccc3n2)c(=S)c2ccccc21,active
11,COc1ccc(NC(=O)Nc2ccc3c(c2)C(=O)N([C@@H](C)CO)C[C@H](C)[C@H](CN(C)C(=O)Nc2ccc(C(F)(F)F)cc2)O3)cc1,inactive
12,C[C@@H]1CN([C@@H](C)CO)C(=O)CCCn2nncc2CO[C@H]1CN(C)S(=O)(=O)c1ccc(Oc2ccccc2)nc1,inactive
13,C[C@@H]1CN([C@H](C)CO)C(=O)Cc2cc(NC(=O)Nc3ccc(C(F)(F)F)cc3)ccc2O[C@H]1CN(C)Cc1ccc(-c2ccccc2)cc1,active
14,Cc1noc(C)c1NC(=O)Nc1ccc2c(c1)C(=O)N([C@@H](C)CO)C[C@@H](C)[C@@H](CN(C)C(=O)Cc1ccccc1)OCCCC[C@@H](C)O2,inactive
15,C[C@@H]1CN([C@H](C)CO)C(=O)Cc2cc(NC(=O)CCCCCC(=O)Nc3ccccc3N)ccc2O[C@@H]1CN(C)S(=O)(=O)c1cn(C)cn1,inactive
16,Cc1noc(C)c1NC(=O)N(C)C[C@@H]1Oc2ccc(NS(=O)(=O)c3cccs3)cc2CC(=O)N([C@H](C)CO)C[C@H]1C,inactive
17,C[C@@H]1CCCCO[C@H](CN(C)C(=O)Cc2ccccc2)[C@@H](C)CN([C@@H](C)CO)C(=O)c2cc(NC(=O)NC3CCCCC3)ccc2O1,inactive
18,Cc1cc(C(=O)Nc2cccc3c2O[C@H](CN(C)Cc2ccccc2)[C@@H](C)CN([C@H](C)CO)C3=O)n(C)n1,inactive
19,C[C@@H]1CN([C@H](C)CO)C(=O)CCCn2nncc2CO[C@@H]1CN(C)C(=O)Nc1ccc(C(F)(F)F)cc1,inactive
20,Cc1cc(O)c(C=O)c2c1C(=O)Oc1c(C)c(O)c3c(c1O2)C(O)OC3=O (stereo not given),inactive
